Z-score data for 30 compounds are collected here from PubChem BioAssay AID488969 (Vanderbilt High Throughput Screening Facility, 2010).

Over roughly 110,000 compounds, “z-score” has its median near -0.1; the highest 2% begin near 2. Some of the results follow. The source made the active and inactive calls.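 The calls were made as follows: active = z-score in the third read window above 3 or below -3; inactive = the rest.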

In the experiment the target is Metabotropic glutamate receptor 8 (Rattus norvegicus) (UniProt P70579). As to the kind of experiment: rat mGluR8 modulators via GIRK flux, primary screen, cell-based, thallium flux, HTS (AID 488969). Particulars: HEK293 rat mGluR8, GIRK (G protein-gated inwardly rectifying potassium channel) thallium flux, FluoZin2; at 10 µM; stronger effect = higher value; submaximal glutamate (EC20) added with thallium.
Sequence of UniProt P70579 (P70579 whole entry, looked up): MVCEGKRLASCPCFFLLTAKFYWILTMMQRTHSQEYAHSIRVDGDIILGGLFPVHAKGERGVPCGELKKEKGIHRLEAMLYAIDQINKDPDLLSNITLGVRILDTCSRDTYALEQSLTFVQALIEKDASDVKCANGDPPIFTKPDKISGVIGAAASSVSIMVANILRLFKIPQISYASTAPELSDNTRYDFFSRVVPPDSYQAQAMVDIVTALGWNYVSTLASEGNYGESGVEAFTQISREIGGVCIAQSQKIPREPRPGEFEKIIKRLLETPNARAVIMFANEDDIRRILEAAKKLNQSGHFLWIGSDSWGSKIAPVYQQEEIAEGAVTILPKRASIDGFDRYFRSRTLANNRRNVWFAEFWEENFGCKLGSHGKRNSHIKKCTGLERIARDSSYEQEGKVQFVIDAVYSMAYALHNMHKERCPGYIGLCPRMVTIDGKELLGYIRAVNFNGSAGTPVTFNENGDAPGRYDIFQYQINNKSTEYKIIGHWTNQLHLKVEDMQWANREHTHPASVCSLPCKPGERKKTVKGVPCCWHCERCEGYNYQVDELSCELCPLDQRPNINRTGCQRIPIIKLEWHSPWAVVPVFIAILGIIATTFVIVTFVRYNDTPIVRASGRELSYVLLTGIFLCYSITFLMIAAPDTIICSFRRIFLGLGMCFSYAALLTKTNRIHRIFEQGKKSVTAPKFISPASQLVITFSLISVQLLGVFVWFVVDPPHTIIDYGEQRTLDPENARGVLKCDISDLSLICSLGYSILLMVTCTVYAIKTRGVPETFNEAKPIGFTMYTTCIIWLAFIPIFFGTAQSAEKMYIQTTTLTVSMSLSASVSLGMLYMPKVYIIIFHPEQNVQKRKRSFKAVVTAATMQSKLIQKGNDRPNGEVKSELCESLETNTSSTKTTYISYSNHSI
Turning to `O=C(Nc1ccc2c(c1)OCO2)C1CCN(Cc2cnn(-c3ccccc3)c2-n2cccc2)CC1`, the z-score was -0.13.
In the case of `O=C(CCCn1c(=O)c2sccc2n(CC(=O)OCc2ccccc2)c1=O)NCc1ccco1`, the z-score was -0.791.
Consider `CC(C)CNc1ncnc2c1sc1nc(N3CCOCC3)c3c(c12)CC(C)(C)OC3`, for which the z-score is -0.517.
The value for `O=C(N/N=C/c1ccc(OC(=O)c2cccs2)cc1)c1cccc(F)c1` was -0.311; that for `COC(=O)c1cc(CC(=O)c2ccc(O)cc2O)c(C)o1` was -0.571; that for `CN(C)S(=O)(=O)c1cccc(C(=O)OCC(=O)Nc2sccc2C#N)c1` was -0.065.
The compound `CC1CCCN(c2ccc(C(=O)OCn3nnc4ccccc4c3=O)cc2[N+](=O)[O-])C1` (stereo not given) yielded a z-score of 0.0133.
For the compound `Cc1ccc(N2C(=O)C(Cl)=C(NCCO)C2=O)c(C)c1`, the z-score is -0.324.
Consider `NC(=S)NNc1cccc(Cl)c1`, for which the z-score worked out at 0.267.
The value for `Cc1ccc(OC(=O)c2cccc(S(=O)(=O)N(C)C)c2)c(-n2nc3ccccc3n2)c1` was -0.273; that for `Cc1ccc(Cl)cc1N1CCN(C(=O)Cc2ccc(-n3c(=O)[nH]c4ccsc4c3=O)cc2)CC1` was -0.665.
`CN(C)CCCOc1ccc2c(c1)Sc1ccccc1CC2=O` gave a z-score of 1.52.
Compound `CCN(CC(=O)Nc1ccccc1C(=O)OC)S(=O)(=O)c1ccc(OC)cc1` returned a z-score of -0.218.
On to `Cc1ccc(C(=O)Nc2ccc3nc(C)sc3c2)s1`, for which the z-score is -0.372.
The value for `CC(=O)C(=[N+]=[N-])C(=O)NCc1ccccc1` was 0.107; that for `O=C1CC(C(=O)Nc2ccccc2)S/C(=N\N=C\c2ccco2)N1` (stereo not given) was -0.194; that for `O=C(CCSc1nnnn1-c1ccccc1)N1CCOCC1` was 0.429.
`Cn1cccc1C(=O)C(=O)Nc1ccccc1` had a z-score of -0.302.
`COc1ccc(N=C2S/C(=C\c3ccc(N4CCOCC4)o3)C(=O)N2CCc2c[nH]c3ccccc23)cc1` registered a z-score of -0.024.
`C/C(=N\NC(=O)COc1ccccc1F)c1cc2ccccc2o1` returned a z-score of -0.0133.
For the compound `COc1cc(-c2nnc(CSc3nc4ccccc4s3)o2)cc(OC)c1OC`, the z-score is active: -3.36.
Consider `Cc1ccc(-c2cc(N)on2)cc1`, for which the z-score stood at 0.0101.
On to `O=c1c2ccccc2[nH]c(=S)n1C1CCCCC1`, for which the z-score was active: 12.5.
The value for `O=S(=O)(NC1CCCC1)c1cccc(-c2nnc(-c3ccccc3)o2)c1` was 1.25; that for `O=C(Oc1cccc(NC(=O)c2ccco2)c1)c1ccc(Br)c(S(=O)(=O)N2CCCCC2)c1` was 0.0261.
The compound `CN(C)c1ccnc(-n2cccc2/C=N/OCc2cccc(F)c2)c1C#N` yielded a z-score of -0.0405.
Turning to `Cc1onc(-c2c(Cl)cccc2Cl)c1C(=O)Nc1ccc2c(c1)OCCO2`, the z-score was -1.08.
Take `Cc1cc(C)c[n+](-c2nc3ccccc3nc2[N-]S(=O)(=O)c2ccc(Br)s2)c1`: the z-score was found to be 0.032.
In turn, `O=c1c2ccccc2sn1-c1ccccc1` returned a z-score of 0.323.
Regarding `Cc1nc(-c2ccccc2)cn2c1nc1ccccc12`, the z-score is -0.124.
